Over roughly 81,000 sequences, “one-hybrid fitness for binding parS DNA” has its median near -0.17; the highest 2% begin near 0.51. The list shows a part of the results.
B1: Caulobacter ParB omega fusion; a variant is named by its letters at X, in order, B8GW30 (parent)
chain: MESVVVGEPGMSEGRRGLGRGLSALLGEVDAAPAQAPGEQLGGSREAPIEILQRNPDQPRRTFREEDLEDLSNSIREKGVLQPILVRPSPDTAGEYQIVAGERAWRAAQRAGLKTVPIMVRELDDLAVLEIGIIENVQRADLNVLEEALSYKVLMEKFERTQENIAQTIGKSXSHVANXMRLLXLPDEVQSYLVSGELTAXHARAIAAAADPVALAKQIIEGGLSVRETEALARKAPNLSAGKSKGGRPPRVKDTDTQALESDLSSVLGLDVSIDHRGSTGTLTITYATLEQLDDLCNRLTRGI

Variants of: B1
Assay: one-hybrid fitness for binding parS DNA (scaled: cognate 1, non-cognate 0); higher = stronger binding
Conditions: with parS DNA site
Method in brief: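 Fitness is the rescaled log change in variant-to-wild-type read ratio, measured by Illumina sequencing of plasmids before and after bacterial one-hybrid selection. The scale puts cognate at 1 and non-cognate at 0. Selection of Caulobacter ParB libraries, four specificity codons randomised, took place in E. coli USO with a HIS3 reporter, site 19 bp from the promoter, over 48 hours at 37°C on M9-minus-histidine with 0.1 mM IPTG and 5 mM 3-AT.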

Variant | one-hybrid fitness for binding parS DNA
CHTT | ≤ 0.2
TWCC | ≤ 0.2
NDRV | ≤ 0.2
EEYR | ≤ 0.2
EWTK | ≤ 0.2
NTYE | ≤ 0.2
VVTG | ≤ 0.2
PGAN | ≤ 0.2
NING | ≤ 0.2
FWPN | ≤ 0.2
AEVG | ≤ 0.2
DQTN | ≤ 0.2
FMCG | ≤ 0.2
DPPS | ≤ 0.2
LQSL | ≤ 0.2
TRKM | ≤ 0.2
SGEC | ≤ 0.2
AMVS | ≤ 0.2
LLTI | ≤ 0.2
MDNY | ≤ 0.2
EPQT | ≤ 0.2
ECLK | ≤ 0.2
QIYA | ≤ 0.2
SEGT | ≤ 0.2

Variant | one-hybrid fitness for binding parS DNA
DWTC | ≤ 0.2
RGWS | 0.573
KDNR | ≤ 0.2
HRGR | ≤ 0.2
PCCS | ≤ 0.2
FTRR | ≤ 0.2
PNPY | ≤ 0.2
CNLP | ≤ 0.2
LNTT | ≤ 0.2
KASM | ≤ 0.2
RSVM | 0.265
VAGC | ≤ 0.2
GWSR | ≤ 0.2
GIGG | ≤ 0.2
PIPQ | ≤ 0.2
MMTL | ≤ 0.2
QIIM | ≤ 0.2
WHRF | ≤ 0.2
IPLM | ≤ 0.2
PANF | ≤ 0.2
LVTM | ≤ 0.2
CLSQ | ≤ 0.2
LCSF | ≤ 0.2
VDNS | ≤ 0.2

Variant | one-hybrid fitness for binding parS DNA
CVLL | ≤ 0.2
DTYC | ≤ 0.2
TYKF | ≤ 0.2
FASM | ≤ 0.2
WPLY | ≤ 0.2
LPWC | ≤ 0.2
TGKD | ≤ 0.2
LTMV | ≤ 0.2
VKIV | ≤ 0.2
LSCN | ≤ 0.2
AMAR | ≤ 0.2
TFQW | ≤ 0.2
VPTM | ≤ 0.2
PSWN | ≤ 0.2
CRNF | ≤ 0.2
SRKI | ≤ 0.2
GKST | ≤ 0.2
TEAV | ≤ 0.2
YSPR | ≤ 0.2
GWAS | ≤ 0.2
KTID | ≤ 0.2
CMRS | ≤ 0.2
WKNA | ≤ 0.2
LTKM | ≤ 0.2

Variant | one-hybrid fitness for binding parS DNA
PERN | ≤ 0.2
TMAL | ≤ 0.2
TSCW | ≤ 0.2
NHTY | ≤ 0.2
HTVQ | ≤ 0.2
SMVM | ≤ 0.2
NFFR | ≤ 0.2
QRQY | ≤ 0.2
AISA | ≤ 0.2
AGEK | ≤ 0.2
IELV | ≤ 0.2
RVTK | ≤ 0.2
PANW | ≤ 0.2
SQES | ≤ 0.2
DAHF | ≤ 0.2
AENW | ≤ 0.2
PADV | ≤ 0.2
YPCE | ≤ 0.2
TIIM | 0.352
RFHP | ≤ 0.2
KADT | ≤ 0.2
ASNS | ≤ 0.2
SLAP | ≤ 0.2
YKHA | ≤ 0.2

Variant | one-hybrid fitness for binding parS DNA
SYRR | ≤ 0.2
HLDS | ≤ 0.2
EGMP | ≤ 0.2
ITVV | ≤ 0.2
GIFL | ≤ 0.2
VTNC | ≤ 0.2
RAAN | 0.448
TQDF | ≤ 0.2
CHPF | ≤ 0.2
PQLD | ≤ 0.2
YTPG | ≤ 0.2
YVGR | ≤ 0.2
PYLF | ≤ 0.2
SYSY | ≤ 0.2
RHIF | ≤ 0.2
PLVY | ≤ 0.2
VKNR | ≤ 0.2
APYE | ≤ 0.2
TIMM | ≤ 0.2
GVSG | ≤ 0.2
QPLD | ≤ 0.2
LYQH | ≤ 0.2
PEIS | ≤ 0.2
TNAF | ≤ 0.2

Variant | one-hybrid fitness for binding parS DNA
YTMC | ≤ 0.2
NCST | ≤ 0.2
LYAR | ≤ 0.2
LFTC | ≤ 0.2
SHFR | ≤ 0.2
MYPE | ≤ 0.2
PGTI | ≤ 0.2
CYVT | ≤ 0.2
CHAS | ≤ 0.2
MWRS | ≤ 0.2
RQSV | ≤ 0.2
ISED | ≤ 0.2
EGDR | ≤ 0.2
AMEM | ≤ 0.2
RTHK | ≤ 0.2
SCAW | ≤ 0.2
QYAG | ≤ 0.2
RGML | ≤ 0.2
DNST | ≤ 0.2
GLRY | ≤ 0.2
VSTH | ≤ 0.2
GING | ≤ 0.2
QNGT | ≤ 0.2
NPQG | ≤ 0.2

Variant | one-hybrid fitness for binding parS DNA
YQHS | ≤ 0.2
TGVL | ≤ 0.2
ETHP | ≤ 0.2
ANRF | ≤ 0.2
WHVS | ≤ 0.2
DAKT | ≤ 0.2
FRFK | ≤ 0.2
YPQR | ≤ 0.2
YSQC | ≤ 0.2
KCKC | ≤ 0.2
RWHG | 0.754
FGFR | ≤ 0.2
RETS | 0.352
RGNV | ≤ 0.2
KNNF | ≤ 0.2
YQFY | ≤ 0.2
LPSQ | ≤ 0.2
RIPC | 0.626
RYQE | ≤ 0.2
IALW | ≤ 0.2
QQLP | ≤ 0.2
RAGT | 0.92
KTWY | ≤ 0.2
NKCG | ≤ 0.2

Variant | one-hybrid fitness for binding parS DNA
NNFM | ≤ 0.2
RQNG | 1.01
LLKC | ≤ 0.2
IGTR | ≤ 0.2
EQDC | ≤ 0.2
NYNL | ≤ 0.2
HHGT | ≤ 0.2
TCRA | ≤ 0.2
SCLE | ≤ 0.2
CKIP | ≤ 0.2
DRKN | ≤ 0.2
TIRM | ≤ 0.2
STFV | ≤ 0.2
LSHR | ≤ 0.2
TIFT | ≤ 0.2
CGSG | ≤ 0.2
WYPP | ≤ 0.2
PFMN | ≤ 0.2
MVYL | ≤ 0.2
GNHT | ≤ 0.2
VTNL | ≤ 0.2
QKRL | ≤ 0.2
NVDI | ≤ 0.2
LFEG | ≤ 0.2

Variant | one-hybrid fitness for binding parS DNA
GFKG | ≤ 0.2
RYHM | 0.298
CHNR | ≤ 0.2
NAMG | ≤ 0.2
SLTL | ≤ 0.2
DISL | ≤ 0.2
QACW | ≤ 0.2
RNYA | 0.467
QKNT | ≤ 0.2
PVQW | ≤ 0.2
NQNR | ≤ 0.2
VRNI | ≤ 0.2
FNSS | ≤ 0.2
DHSR | ≤ 0.2
HATW | ≤ 0.2
RRQP | ≤ 0.2
DQFT | ≤ 0.2
QIKD | ≤ 0.2
SQPP | ≤ 0.2
KSQA | ≤ 0.2
RNDS | 0.823
DNKG | ≤ 0.2
PFSA | ≤ 0.2
THDC | ≤ 0.2

Variant | one-hybrid fitness for binding parS DNA
DESC | ≤ 0.2
LAHQ | ≤ 0.2
GFSR | ≤ 0.2
HFPR | ≤ 0.2
PKRS | ≤ 0.2
SPDL | ≤ 0.2
KRHE | ≤ 0.2
VTVL | ≤ 0.2
PTTS | ≤ 0.2
RGLS | 0.65
LPTW | ≤ 0.2
PLAI | ≤ 0.2
FIFF | ≤ 0.2
VRMS | ≤ 0.2
RQVH | ≤ 0.2
PLIH | ≤ 0.2
VRPM | ≤ 0.2
QIYC | ≤ 0.2
SAAA | ≤ 0.2
PFSK | ≤ 0.2
RYCC | 0.903
NRLV | ≤ 0.2
VMRT | ≤ 0.2
CSAD | ≤ 0.2

Variant | one-hybrid fitness for binding parS DNA
LQSA | ≤ 0.2
MTNI | ≤ 0.2
ALSR | ≤ 0.2
YKHK | ≤ 0.2
EICS | ≤ 0.2
QYWM | ≤ 0.2
QEAT | ≤ 0.2
DLEM | ≤ 0.2
DCCT | ≤ 0.2
VSHR | ≤ 0.2
VNWR | ≤ 0.2
PNTS | ≤ 0.2
EHEV | ≤ 0.2
RFGA | 0.531
ETGG | ≤ 0.2
DIKG | ≤ 0.2
RMMQ | 0.215
DSAL | ≤ 0.2
HIAW | ≤ 0.2
LAKS | ≤ 0.2
YAAV | ≤ 0.2
CLRG | ≤ 0.2
DLPV | ≤ 0.2
LFIG | ≤ 0.2

Variant | one-hybrid fitness for binding parS DNA
PFIL | ≤ 0.2
YPSE | ≤ 0.2
KRNP | ≤ 0.2
PPAP | ≤ 0.2
PCMA | ≤ 0.2
FILS | ≤ 0.2
WYGK | ≤ 0.2
IPQL | ≤ 0.2
SYAA | ≤ 0.2
KVLD | ≤ 0.2
FNFS | ≤ 0.2
SMYS | ≤ 0.2
SRTS | ≤ 0.2
KEDC | ≤ 0.2
LWYL | ≤ 0.2
IRRT | ≤ 0.2
SSRL | ≤ 0.2
GEQG | ≤ 0.2
CVMI | ≤ 0.2
SDPW | ≤ 0.2
PIHM | ≤ 0.2
GNRC | ≤ 0.2
DIVC | ≤ 0.2
STPP | ≤ 0.2

Variant | one-hybrid fitness for binding parS DNA
ETDL | ≤ 0.2
QWRC | ≤ 0.2
HSGK | ≤ 0.2
QLAD | ≤ 0.2
EPSC | ≤ 0.2
NVTA | ≤ 0.2
EFWR | ≤ 0.2
NDPM | ≤ 0.2
VSKS | ≤ 0.2
FVKG | ≤ 0.2
RHWR | ≤ 0.2
TPCY | ≤ 0.2
HNAW | ≤ 0.2
TVGM | ≤ 0.2
AMDY | ≤ 0.2
SWDM | ≤ 0.2
YRSS | 0.289
RMPH | ≤ 0.2
